Source: PubChem BioAssay AID2107 (National Center for Advancing Translational Sciences (NCATS), 2009)
Hit rate of the full screen: of about 240,000 compounds, about 20 (0.008%) were called active. The shares of active, inactive and inconclusive entries below differ from those in the screen. Calls come from the whole dose curve; as a rule, active = well fitted inhibition curve with a large enough effect; inconclusive = small, poorly fitted or top-dose-only effect, or effect the other way; inactive = flat fitted curve, though single readings scatter. Potencies of inconclusive entries are left out as doubtful fits.
Potency is the fitted concentration of half-maximal effect; tags give direction and shape of the fitted curve.
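Throughout, for activity change, negative = inhibition: 0% = enzyme with vehicle and -100% = no enzyme basal signal.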

What follows are molecules tested against Alpha-galactosidase A (Homo sapiens) (UniProt P06280) (assay: qHTS Assay for Inhibitors and Activators of Human alpha-Galactosidase From Spleen Homogenate). Settings: 4MU-alpha-Gal fluorescence, 40 min; activity change, negative = inhibition: at 80 µM (top of the series).
UniProt P06280, sequence (P06280 whole entry, looked up): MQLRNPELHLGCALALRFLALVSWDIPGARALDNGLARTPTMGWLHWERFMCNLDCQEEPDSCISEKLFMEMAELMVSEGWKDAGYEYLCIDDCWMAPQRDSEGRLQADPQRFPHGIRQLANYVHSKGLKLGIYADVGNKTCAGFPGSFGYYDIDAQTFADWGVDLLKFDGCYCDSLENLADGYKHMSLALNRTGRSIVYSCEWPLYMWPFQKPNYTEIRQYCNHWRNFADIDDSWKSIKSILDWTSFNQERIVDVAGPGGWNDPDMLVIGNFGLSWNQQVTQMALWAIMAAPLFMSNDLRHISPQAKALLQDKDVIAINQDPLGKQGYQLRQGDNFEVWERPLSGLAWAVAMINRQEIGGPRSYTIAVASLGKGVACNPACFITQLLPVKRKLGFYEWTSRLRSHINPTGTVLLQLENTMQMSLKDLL
Outline: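 Human spleen homogenate (1 ug) was the enzyme source, with 4-methylumbelliferyl-alpha-D-galactopyranoside (1 mM final) in pH 5.0 citrate buffer with 0.01% Tween-20. Compounds were titrated; after 40 min at 37C, NaOH/glycine stop, 4-MU fluorescence read; AC50 from Hill fits.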
With Cc1ccc(NC(=O)CSC2=C(C#N)C(c3ccco3)C3=C(CC(C)(C)CC3=O)N2)cc1 (stereo unspecified) the Potency was inconclusive [inhibitor, single point]. With Cc1cccc(OCC(=O)Nc2ccc(N3CCCC3)cc2)c1C the “activity change, negative = inhibition” value was inactive: 6.5%. With CC1CCN(C(=O)CSc2nnc(CN3CCOCC3)n2-c2ccccc2)CC1 the Potency was inconclusive [inhibitor, partial curve]. With O=C(O)c1cc(=O)c2ccccc2[nH]1 the Potency was inconclusive [inhibitor, full curve]. With CC(=O)O[C@@H]1CC2C(C)(C)C(=O)C=C[C@]2(C)C2CC[C@]3(C)C(=CC[C@H]3C3CO[C@@H](C(C)(C)O)[C@H](O)C3)[C@@]21C (stereo partly specified) the “activity change, negative = inhibition” value was inactive: 9.49%. CCCCCCCCCCCCC/C=C/[C@@H](O)[C@H](COP(=O)([O-])OCC[N+](C)(C)C)NC(=O)CCCCCCCCCCCCCCCCC was tested, and the “activity change, negative = inhibition” value was inactive: -10%. With CCOc1ncccc1C(=O)OCC(=O)Nc1ccc(-c2nc3ccc(C)cc3s2)cc1 the Potency was inconclusive [activator, single point]. In the case of O=C(Cc1c[nH]c2ccccc12)N/N=C/c1ccccc1O, the Potency is reported as inconclusive [activator, single point]. Cc1cc(C)c2c(n1)nn1c(N3CCN(Cc4ccccc4)CC3)cc(C)nc21 was tested, and the Potency was inconclusive [activator, partial curve]. For COc1cccc(C(=O)C[n+]2ccccc2/C=N/O)c1, the Potency was inconclusive [activator, single point]. For Cc1ccc(-n2nnc3c(=O)n(CC(=O)OCc4ccccc4)cnc32)cc1, the “activity change, negative = inhibition” value was inactive: 7.6%. For C/C(CCN1CCCCc2nc(C)c(C)cc21)=N\O[C@@H](C)c1cn([C@@H]2COC[C@@H]2O)nn1, the activity change, negative = inhibition was inactive: 2.02% [at 17.5 µM]. CCOC(=O)/C(C#N)=C/Nc1cc(C(=O)OCC)cc2c(OC)c(OC)ccc12 was tested, and the Potency was inconclusive [activator, single point]. For O=C(COC(=O)CN1C(=O)C(=O)c2ccccc21)OCN1C(=O)c2ccccc2C1=O, the “activity change, negative = inhibition” value was inactive: -3.68%. In the case of Nc1ccc(Br)cc1C(=O)O, the Potency is reported as inconclusive [inhibitor, single point]. For COc1cccc(N=c2oc3cc(O)ccc3cc2C(=O)NCC2CCCO2)c1 (stereo unspecified), the Potency was inconclusive [activator, partial curve]. COc1cccc(-c2cc3nc(-c4ccccc4)cc(N4CCCC(O)C4)n3n2)c1 (stereo unspecified) was tested, and the Potency was inconclusive [activator, partial curve]. In the case of O=Nc1ccc(Nc2ccccc2)cc1, the “activity change, negative = inhibition” value is reported as inactive: 7.78%. COc1ccccc1CNc1ncnc2ccc(-c3ccc(N(C)C)cc3)cc12 was tested, and the Potency was inconclusive [activator, single point]. With Cc1cc(-n2c(=O)c(C#N)cc3c(=O)n4cccc(C)c4nc32)no1 the Potency was inconclusive [activator, full curve]. For N=c1ccn(CC(=O)NC(N)=O)c2ccccc12, the Potency was inconclusive [activator, single point]. For O=C(NCC1CC1)C1(C(F)(F)F)C/C(=C\CCO)CCCO1 (stereo unspecified), the “activity change, negative = inhibition” value was inactive: 6.89%. In the case of O=C(COC(=O)Cc1cn2ccsc2n1)Nc1nc2ccccc2s1, the “activity change, negative = inhibition” value is reported as inactive: 1.15%. In the case of Cc1cc(-c2cc(-c3ccc(Cl)cc3)nc(N)c2C#N)co1, the Potency is reported as inconclusive [activator, partial curve]. For COc1ccc(N=C2SC(CC(=O)Nc3ccc(OC)cc3OC)C(=O)N2C)cc1 (stereo unspecified), the Potency was inconclusive [inhibitor, full curve, poor fit]. In the case of CCOc1ccc(NC2=C(Cl)C(=O)N(Cc3ccccc3)C2=O)cc1, the “activity change, negative = inhibition” value is reported as inactive: -7.6%. CCCCNC(=O)c1sc(=S)n(-c2ccccc2OC)c1N was tested, and the “activity change, negative = inhibition” value was inactive: -0.92%. For Cc1cccc(C)c1-n1c(C)cc(/C=N/NC(=O)c2ccncc2)c1C, the “activity change, negative = inhibition” value was inactive: 2.8%. With Cc1ccc(NNC(=O)c2cc(C(C)(C)C)nn2Cc2ccccc2)cc1 the “activity change, negative = inhibition” value was inactive: 2.09%. With COC(=O)c1cc(Cl)c(NC(=O)/C=C/c2ccc(Cl)cc2Cl)cc1OC the Potency was inconclusive [activator, full curve, poor fit]. O=C(CCl)N=c1sccn1Cc1ccc(Cl)cc1Cl was tested, and the “activity change, negative = inhibition” value was inactive: -5.66%. With CCc1c(C)nc(SCc2ccccn2)[nH]c1=O the Potency was inconclusive [activator, single point]. With COCCNc1oc(/C=C/c2ccccc2)nc1C#N the Potency was inconclusive [activator, partial curve]. CN(C)c1oc(/C=C/c2ccccc2)nc1C#N was tested, and the Potency was inconclusive [activator, partial curve]. Cc1nc(NCC2CCCO2)[nH]c(=O)c1CCC(C)C (stereo unspecified) was tested, and the “activity change, negative = inhibition” value was inactive: 5.51%. With CN1CCN(C(=O)c2ccc(CSc3ccc(Cl)cc3)cc2)CC1 the “activity change, negative = inhibition” value was inactive: 0.254%. With CCc1c(C)c2cc(Cl)c(O)c(CN(C)C)c2oc1=O the Potency was inconclusive [activator, partial curve]. With O=C(Nc1ccccc1)N(CCCN1CCOCC1)Cc1cc2cc3c(cc2[nH]c1=O)OCCO3 the Potency was inconclusive [activator, single point]. With CC(C)c1cc(-c2n[nH]c(=S)n2Cc2ccccc2)cs1 the Potency was inconclusive [inhibitor, single point]. With CC(=O)c1ccc(Oc2cc(C)nc(NCc3ccccc3)n2)cc1 the Potency was inconclusive [activator, single point]. In the case of Cc1c2c(nc3ccccc13)-c1cccc(=O)n1C2, the Potency is reported as inconclusive [activator, full curve]. O=[N+]([O-])c1ccccc1CNC1CCCCCC1 was tested, and the “activity change, negative = inhibition” value was inactive: 6.12%. With CC1(C)CC(=O)C2=C(C1)c1c(ccc3ccccc13)NC2c1ccco1 (stereo unspecified) the Potency was inconclusive [activator, partial curve]. For COC(=O)C/C=C\[C@@H](C)[C@@H](/C=N\OC[C@@H](O)[C@H]1O[C@H]2OC(C)(C)O[C@H]2[C@@H]1O)OC, the activity change, negative = inhibition was inactive: -3.21% [at 17.5 µM]. O=C(Cc1nnc(NC(=O)Nc2ccccc2F)s1)NCc1ccccc1 was tested, and the “activity change, negative = inhibition” value was inactive: 10.7%. For NC(=O)COC(=O)c1ccc2c(c1)S(=O)(=O)N=C1CCCCCN12, the “activity change, negative = inhibition” value was inactive: 7%. In the case of CC1=C(C(=O)OC(C)C)C(c2cccnc2)C2=C(CC(C)(C)CC2=O)N1 (stereo unspecified), the Potency is reported as inconclusive [activator, partial curve]. With CCNc1ncc2nc(-c3cc(F)cc(F)c3)c(=O)n(C)c2n1 the Potency was inconclusive [activator, partial curve]. In the case of C/C(=N\NC(=O)c1ccc(CN2CCc3ccccc3C2)cc1)c1ccccc1O, the “activity change, negative = inhibition” value is reported as inactive: 14.6%. For CCOCc1nnc(NC(=O)c2cc(OC)c(OC)cc2[N+](=O)[O-])s1, the “activity change, negative = inhibition” value was inactive: 9.86%. For O=c1c2ccccc2[nH]c2ccccc12, the Potency was inconclusive [activator, partial curve]. With O=C(c1ccco1)N1CCC[C@@]2(CCN(C(c3ccccc3)c3ccccc3)C2)C1 the “activity change, negative = inhibition” value was inactive: -0.332%. In the case of O=C1NN(c2ccccc2)C(=O)/C1=C\c1ccc(-c2cc([N+](=O)[O-])ccc2O)o1, the Potency is reported as inconclusive [inhibitor, partial curve]. For c1coc(-c2nnc3sc(C4CCCCC4)nn23)c1, the Potency was inconclusive [inhibitor, single point]. For Cc1ccc(S(=O)(=O)c2c(N)n(Cc3ccco3)c3nc4ccccc4nc23)cc1C, the Potency was inconclusive [activator, partial curve]. For CC1(C)CC(=O)C2=C(C1)N(CCN1CCOCC1)C1=C(C(=O)CC(C)(C)C1)C2c1cccc(F)c1, the Potency was inconclusive [activator, single point]. With Cc1ccc(C(=O)CC2(O)C(=O)N(Cc3ccc4c(c3)OCO4)c3ccccc32)cc1 (stereo unspecified) the “activity change, negative = inhibition” value was inactive: 9.46%. For CCN(CC)c1ccc2c(Cl)cc(=O)oc2c1, the Potency was inconclusive [activator, partial curve]. For COc1cccc(/C=C2\SC(=S)N(CC3CCCO3)C2=O)c1 (stereo unspecified), the “activity change, negative = inhibition” value was inactive: -1.27%. In the case of O=C(CSc1nnc(CNC(=O)c2ccccc2F)o1)Nc1ccc2c(c1)OCCO2, the “activity change, negative = inhibition” value is reported as inactive: -0.452%. With Cc1c(SCCO)c(=O)[nH]c2cc3c(cc12)OCO3 the Potency was inconclusive [activator, single point]. COc1cc(/C=C2\SC(=O)N(c3cccc(Cl)c3)C2=O)cc([N+](=O)[O-])c1O was tested, and the “activity change, negative = inhibition” value was inactive: 7.9%. For CN1C(=O)N(c2cccc3ccccc23)C(n2cncn2)C1(C)C (stereo unspecified), the Potency was inconclusive [inhibitor, single point]. In the case of CCCOC(=O)c1ccc(NC(=O)c2ccccc2[N+](=O)[O-])cc1, the Potency is reported as inconclusive [inhibitor, partial curve, poor fit]. In the case of Clc1ccc(/C=C/c2nc3ccccc3[nH]2)c(Cl)c1, the Potency is reported as inconclusive [activator, partial curve]. In the case of C=CCNc1oc(/C=C/c2ccccc2)nc1C#N, the Potency is reported as inconclusive [activator, partial curve]. COc1ccccc1-c1nnc(SCC(=O)N2CC(C)CC(C)C2)o1 (stereo unspecified) was tested, and the Potency was inconclusive [inhibitor, partial curve]. With CC(C)CCNC(=O)Cc1ccc(Nc2nc(=S)[nH]c3ccccc23)cc1 the “activity change, negative = inhibition” value was inactive: -5.56%. Cc1c(C)c2cc(Cl)c(O)c(CN3CCN(C)CC3)c2oc1=O was tested, and the Potency was inconclusive [activator, partial curve]. In the case of CCOC(=O)c1cc2c(=O)n3ccccc3nc2n(Cc2ccco2)c1=NC(=O)c1ccccc1OC, the Potency is reported as inconclusive [activator, partial curve]. CC(OC(=O)c1cc2sccc2n1C)C(=O)NCc1cccs1 (stereo unspecified) was tested, and the Potency was inconclusive [inhibitor, single point].
